# The full ranking holds about 33,000 sequences; the median of “E-score (-0.5 to 0.5)” is about -0.012, and the highest 2% start at about 0.27. The list shows a part of the results.
# Molecular target: T1, Vhr1 (UniProt P40522)
# T1 sequence: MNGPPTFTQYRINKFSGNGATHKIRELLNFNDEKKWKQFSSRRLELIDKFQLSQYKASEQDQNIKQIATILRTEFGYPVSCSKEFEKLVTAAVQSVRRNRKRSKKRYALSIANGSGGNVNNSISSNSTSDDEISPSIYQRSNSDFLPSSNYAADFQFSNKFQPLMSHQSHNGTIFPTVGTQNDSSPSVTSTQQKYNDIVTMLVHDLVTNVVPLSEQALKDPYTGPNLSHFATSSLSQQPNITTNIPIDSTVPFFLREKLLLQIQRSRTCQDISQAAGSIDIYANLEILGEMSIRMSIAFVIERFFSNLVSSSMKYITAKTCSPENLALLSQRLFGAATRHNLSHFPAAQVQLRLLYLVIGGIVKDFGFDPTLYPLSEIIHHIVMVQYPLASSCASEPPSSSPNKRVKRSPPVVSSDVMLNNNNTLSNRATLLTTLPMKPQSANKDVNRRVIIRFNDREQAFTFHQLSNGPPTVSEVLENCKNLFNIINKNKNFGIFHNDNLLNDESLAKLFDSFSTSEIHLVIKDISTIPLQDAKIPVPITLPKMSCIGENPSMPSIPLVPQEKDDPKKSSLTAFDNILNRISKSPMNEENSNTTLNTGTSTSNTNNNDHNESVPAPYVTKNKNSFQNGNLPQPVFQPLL
# Test: PBM E-score (8-mer binding enrichment) (E-score (-0.5 to 0.5)); higher = stronger / more preferred TF binding; most listed sequences are background and not binding sites
# Conditions: protein concentration: 200 nM; construct: GST-full length
# Outline: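 Universal all-10-mer Agilent arrays, double-stranded by primer extension on fresh or once-stripped slides, were probed with about 100-200 nM GST-tagged yeast transcription factors made by PURExpress. Fluorescent anti-GST detected bound protein, and masliner normalised the scans. E-scores from the Universal PBM Analysis Suite were given to each ungapped eight-base word pooled with its reverse complement.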
row,Sequence,PBM E-score
1,AACTGCCC,-0.129
2,ACAGTTTC,0.0797
3,CCAAAACG,0.162
4,TACACCAA,0.0252
5,CCACAGGA,-0.0405
6,AAGAGCCC,-0.0902
7,AGTCCAAA,-0.0544
8,ACTTCAAT,-0.101
9,ATTGTTGC,0.0438
10,CTGGCGTC,-0.034
11,CACCCGAC,0.0689
12,ATTCCCTA,0.0361
13,AAGCGCCA,-0.138
14,CCTTTTCA,-0.153
15,ACGGAGTA,0.0079
16,AGACATTG,-0.0856
17,TACTGAAA,0.0591
18,GGCTAAGA,-0.0931
19,AGCGCCGG,-0.147
20,AACCAGTT,0.245
21,CGTACACC,-0.00295
22,GCCCCGAC,0.108

row,Sequence,PBM E-score
1,GGTTATGA,0.0904
2,AAGCTCCC,-0.125
3,CAGGCTCA,0.229
4,GGTGATCA,0.166
5,TATTATAA,-0.0377
6,AGATGTCA,0.0715
7,ACGTACAC,0.174
8,ACGCGCGT,-0.0127
9,AAAGGGCT,-0.223
10,AGCCTCGG,-0.00338
11,ATGTAGTG,0.114
12,GTTATAAA,-0.0862
13,CTCACAGA,0.0226
14,AGTTGCAG,-0.0695
15,GTTAGTAA,-0.0135
16,AAGACTTG,-0.127
17,AGTGGTGA,0.00626
18,AGCCATAG,0.0188
19,ACAAAACA,0.0375
20,CCGGACGC,0.105
21,CCTTTACC,-0.185
22,CGATTGCG,-0.0419

row,Sequence,PBM E-score
1,ACTTGATA,0.153
2,CTGCGCCC,-0.161
3,GAGCCATC,0.228
4,CCACGAAA,-0.153
5,CCCTCCCG,0.00845
6,CGACTCCG,0.391
7,TGGGCAAA,-0.044
8,AAATAATC,0.0264
9,ACGCGTTC,-0.0968
10,AAAGCGCA,-0.125
11,CTAAAATA,-0.0284
12,CTTCCCCC,-0.189
13,ATGCATAC,0.079
14,CATGCCAA,-0.0216
15,ATGAAAGA,-0.0635
16,AACTCCCG,-0.112
17,TTACTCAA,0.0752
18,ACTCGGCC,0.0882
19,GACCCGTA,0.088
20,CTGAGTGC,0.0204
21,CTACTAAA,-0.0489
22,CTTGGTTA,0.126

row,Sequence,PBM E-score
1,GCGGGCGA,0.255
2,AAGTTTTG,-0.0397
3,CGAAACGA,-0.0761
4,CAGTCGGA,0.0502
5,AGATCTAC,-0.0561
6,ATAGATGC,-0.0668
7,GTAAAGCA,-0.144
8,ATAAATAC,0.0462
9,CCGGGCCA,0.035
10,AATGCTAG,-0.0453
11,ATGTGGCA,0.0234
12,AGTTCGCC,-0.0347
13,CGGACGGC,-0.108
14,AAGCGATA,-0.00935
15,AAGTAATG,0.0713
16,GTCAATAA,-0.0972
17,TATGATGA,0.286
18,ACCTTATG,0.0528
19,CGCTACAA,-0.156
20,CGGAGATC,-0.0653

# — the supplement of paper PMC3334620
